Results: the supplement of paper PMC4967469
The IC50 comes from the fitted curve, where viability falls to half of the control; a fit beyond the top or the lowest dose is shown as a bound at that dose. AUC sums up the same curve from the lowest dose to the 256-fold higher top dose: 1 means no effect, lower means more sensitive. The top dose, if marked as inferred, comes from the curve model; the source does not state it.

compound: C=CC(=O)Nc1cccc(Nc2nc(NC3CCC(N(C)C)CC3)nc3c2ncn3C(C)C)c1 [WZ3105]; assay: Viability of human cancer cell lines after 72 h of drug (GDSC screen); settings: top dose inferred
Description: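 Human cancer cell lines in 384-well plates, medium with 10% serum, drug for 72 h over a 256-fold dose range (nine 2-fold or five 4-fold steps up to the top dose). Adherent lines were fixed and stained with the nucleic acid dye Syto60, suspension lines read with resazurin; signal relative to control wells, capped at 0 and 100%. One two-parameter sigmoid per drug and line, fitted in a mixed model over all curves with the slope shared within a line.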

In order of rising AUC:
1. MDA-MB-453 (breast, adherent, top dose 10.24 µM)  0.38
2. MHH-ES-1 (Ewing sarcoma, adherent, top dose 1.28 µM)  0.446
3. MHH-PREB-1 (B-cell leukaemia, suspension, top dose 1.28 µM)  0.606
4. MEL-JUSO (melanoma, adherent, top dose 1.28 µM)  0.615
5. MC116 (B-cell lymphoma, suspension, top dose 1.28 µM)  0.652
6. MDA-MB-468 (breast, adherent, top dose 1.28 µM)  0.653
7. ME-180 (cervix, adherent, top dose 1.28 µM)  0.713
8. MDA-MB-175-VII (breast, adherent, top dose 1.28 µM)  0.737
9. MC-IXC (neuroblastoma, adherent, top dose 1.28 µM)  0.745
10. MDA-MB-231 (breast, adherent, top dose 1.28 µM)  0.754
11. MDA-MB-157 (breast, adherent, top dose 1.28 µM)  0.78
12. MDA-MB-330 (breast, adherent, top dose 1.28 µM)  0.785
13. LU-165 (small cell lung carcinoma, suspension, top dose 1.28 µM)  0.814
14. LXF-289 (lung adenocarcinoma, adherent, top dose 1.28 µM)  0.828
15. MFM-223 (breast, adherent, top dose 1.28 µM)  0.86
16. MC-CAR (haematopoietic neoplasm, suspension, top dose 1.28 µM)  0.865
17. MDA-MB-361 (breast, adherent, top dose 1.28 µM)  0.877
18. MFE-319 (endometrium, adherent, top dose 1.28 µM)  0.879
19. MDST8 (large intestine, adherent, top dose 1.28 µM)  0.887
20. MFE-280 (endometrium, adherent, top dose 1.28 µM)  0.888
21. M059J (glioma, adherent, top dose 1.28 µM)  0.89
22. MFE-296 (endometrium, adherent, top dose 1.28 µM)  0.892
23. MHH-NB-11 (neuroblastoma, adherent, top dose 1.28 µM)  0.892
24. MEG-01 (chronic myeloid leukaemia, suspension, top dose 1.28 µM)  0.911
25. MFH-ino (soft tissue, adherent, top dose 1.28 µM)  0.912
26. MES-SA (uterus, adherent, top dose 1.28 µM)  0.918
27. MDA-MB-415 (breast, adherent, top dose 1.28 µM)  0.935
28. LoVo (large intestine, adherent, top dose 1.28 µM)  0.943
29. ME-1 (acute myeloid leukaemia, suspension, top dose 1.28 µM)  0.959
30. MDA-MB-436 (breast, adherent, top dose 1.28 µM)  0.963
31. M14 (melanoma, adherent, top dose 1.28 µM)  0.968
32. MCF7 (breast, adherent, top dose 1.28 µM)  0.98
33. MG-63 (osteosarcoma, adherent, top dose 1.28 µM)  0.984

“LU-165 (small cell lung carcinoma, suspension, top dose 1.28 µM)” and “LXF-289 (lung adenocarcinoma, adherent, top dose 1.28 µM)” are within 1.5-fold of each other in IC50: 808 nM for the first, 770 nM for the second.

“LoVo (large intestine, adherent, top dose 1.28 µM)” and “M14 (melanoma, adherent, top dose 1.28 µM)” cannot be ordered by IC50: over 1280 nM for the first, over 1280 nM for the second.

Going from “M059J (glioma, adherent, top dose 1.28 µM)” to “MC116 (B-cell lymphoma, suspension, top dose 1.28 µM)”, the IC50 falls from over 1280 nM to 186 nM.

Going from “MC-CAR (haematopoietic neoplasm, suspension, top dose 1.28 µM)” to “MC-IXC (neuroblastoma, adherent, top dose 1.28 µM)”, the IC50 falls from 933 nM to 317 nM (2.9-fold).

First: MCF7 (breast, adherent, top dose 1.28 µM)
Second: MDA-MB-157 (breast, adherent, top dose 1.28 µM)
The IC50 of the first is higher: over 1280 nM for the first, 542 nM for the second.

“MDA-MB-175-VII (breast, adherent, top dose 1.28 µM)” and “MDA-MB-231 (breast, adherent, top dose 1.28 µM)” are within 1.5-fold of each other in IC50: 412 nM for the first, 455 nM for the second.

First: MDA-MB-330 (breast, adherent, top dose 1.28 µM)
Second: MDA-MB-361 (breast, adherent, top dose 1.28 µM)
The IC50 of the first is 2-fold lower: 632 nM for the first, 1270 nM for the second.

“MDA-MB-415 (breast, adherent, top dose 1.28 µM)” and “MDA-MB-436 (breast, adherent, top dose 1.28 µM)” cannot be ordered by IC50: over 1280 nM for the first, over 1280 nM for the second.

“MDA-MB-453 (breast, adherent, top dose 10.24 µM)” and “MDA-MB-468 (breast, adherent, top dose 1.28 µM)” are within 1.5-fold of each other in IC50: 288 nM for the first, 209 nM for the second.

“MDST8 (large intestine, adherent, top dose 1.28 µM)” and “ME-1 (acute myeloid leukaemia, suspension, top dose 1.28 µM)” cannot be ordered by IC50: over 1280 nM for the first, over 1280 nM for the second.

Going from “ME-180 (cervix, adherent, top dose 1.28 µM)” to “MEG-01 (chronic myeloid leukaemia, suspension, top dose 1.28 µM)”, the IC50 rises from 329 nM to over 1280 nM.

First: MEL-JUSO (melanoma, adherent, top dose 1.28 µM)
Second: MES-SA (uterus, adherent, top dose 1.28 µM)
The IC50 of the first is lower: 173 nM for the first, over 1280 nM for the second.

“MFE-280 (endometrium, adherent, top dose 1.28 µM)” and “MFE-296 (endometrium, adherent, top dose 1.28 µM)” cannot be ordered by IC50: over 1280 nM for the first, over 1280 nM for the second.

Going from “MFE-319 (endometrium, adherent, top dose 1.28 µM)” to “MFH-ino (soft tissue, adherent, top dose 1.28 µM)”, the IC50 rises from 1240 nM to over 1280 nM.

Compared with “MFM-223 (breast, adherent, top dose 1.28 µM)”, “MG-63 (osteosarcoma, adherent, top dose 1.28 µM)” is higher in IC50: 1050 nM for the first, over 1280 nM for the second.

First: MHH-ES-1 (Ewing sarcoma, adherent, top dose 1.28 µM)
Second: MHH-NB-11 (neuroblastoma, adherent, top dose 1.28 µM)
The IC50 of the first is lower: 56.9 nM for the first, over 1280 nM for the second.

In the case of “MHH-PREB-1 (B-cell leukaemia, suspension, top dose 1.28 µM)”, the IC50 is reported as 151 nM.
